Data from ChEMBL document CHEMBL1201862, “PubChem BioAssay data set” (2004).
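Each compound was tested at five concentrations against cells in 96-well plates for 48 hours. GI50 = concentration required for 50% inhibition of growth.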 Activity calls are given as the source filed them. Rule as the data show it: active = GI50 up to about 1.1 µM and inactive = higher. Numbered stars: 1 amine (or outer) side, 2 acyl side, 3 side chain; on linkers, the order of the positions; unused ones are H or OH. Bridge positions count the residues as written; N and C are the ends. Square brackets hold non-standard residues; d marks the D form. Peptide text beside a SMILES is read from it. * marks the point of attachment. X35 = CC[C@H](C)[C@@H](N[*:1])[C@@H](O)CC(=O)[*:2]; NMeY = CN[C@@H](Cc1ccc(O)cc1)C(=O)O; dNMeL = CN[C@H](CC(C)C)C(=O)O; Hiv = CC(C)[C@H](O)C(=O)O; Pyruvoyl = CC(=O)C(=O)*

What follows are molecules tested on NCI-H322M (assay: NCI-60 cell line screen, 48 h).

Compound | GI50
CCNC1(c2cccc(C)c2)OC(C)(C)c2cccc3cccc1c23 (stereo unspecified) | inactive: 18.5 µM
COc1ccc2oc3c(C)cc4c(OC)nnc(OC)c4c3c2c1 | inactive: 75.3 µM
C[n+]1ccccc1/C1=c2\cc/c([nH]2)=C(\c2cccc[n+]2C)C2=N/C(=C(/c3cccc[n+]3C)C3C=CC(N3)/C(c3cccc[n+]3C)=C3/C=CC1=N3)C=C2 | inactive: 94.6 µM
C=C(CO)CC(O)c1cc(OC)ccc1OC (stereo unspecified) | inactive: > 100 µM
CCOc1ccnc2c(OC)c(C)c3nc4ccccc4nc3c12 | inactive: > 100 µM
O=S(OC12CC3CC(CC(C3)C1)C2)c1cc(Cl)cc(Cl)c1OCc1ccccc1 (stereo unspecified) | inactive: > 100 µM
C/C=C(\C)C(=O)OC1C2C(C)=CC(=O)C(O)C2(C)C2C3(O)OCC24C1OC(=O)C(OC(C)=O)C4C(C)C3O (stereo unspecified) | active: 0.107 µM
OCCCNCc1ccccn1 | inactive: > 100 µM
COc1ccc2nc3ccc(OC)cc3c(SCc3ccc([N+](=O)[O-])cc3)c2c1 | inactive: > 100 µM
CC1=C(C)CC2(CCCCC2=O)[S+]([O-])C1 (stereo unspecified) | inactive: > 100 µM
COC(=O)c1ccc(/C=N/c2ccc(S(N)(=O)=O)cc2)cc1 | inactive: > 100 µM
CNc1ncnc(Sc2nc(N)nc3[nH]cnc23)c1[N+](=O)[O-] | inactive: 5.9 µM
Clc1ccccc1C(n1cc(Br)cn1)n1cc(Br)cn1 | inactive: 3.91 µM
Nc1ncnc2c1nc(Cl)n2[C@@H]1O[C@@H]2COP(=O)(O)O[C@H]2[C@H]1O [TOCLADESINE] | inactive: 52 µM
CC(C)(C)OC(=O)NC(Cc1c[nH]cn1)C(=O)N1CCCC1C(N)=O (stereo unspecified) | inactive: > 100 µM
CCC1C(=O)OCc2c1cc1n(c2=O)CCC12OCCO2 (stereo unspecified) | inactive: > 100 µM
Nc1ncnc2c1ncn2[C@@H]1C[C@H]1CO | inactive: > 100 µM
N#CC(CC(=O)O)=C(c1ccccc1)c1ccccc1 | inactive: > 100 µM
Cn1cc(S(=O)(=O)NC(=O)Nc2ccc(Cl)cc2)c(=O)c2ccc(F)cc21 | inactive: > 100 µM
CC(=O)OCCCCn1nncc1Cn1ccc(=O)n(Cc2cnnn2CCCCOC(C)=O)c1=O | inactive: > 100 µM
Cc1cc(N(CCC#N)CCC#N)ccc1C(/N=N\c1ccc(C(=O)O)cc1)=N\NC(=O)c1cc(Cl)ccc1O | inactive: 35.8 µM
C/C(=N\NC(=O)CC#N)C(CN1CCCCC1)C(c1ccccc1)c1c(O)c2ccccc2oc1=O (stereo unspecified) | inactive: 65 µM
O=c1c2ccccc2nc(-c2ccccc2)n1NC(=S)Nc1ccc(Cl)cc1 | inactive: > 100 µM

Compound | GI50
Cc1cc(NS(=O)(=O)c2ccc(NC(=O)COC(=O)c3cccc4c(=O)c5ccccc5[nH]c34)cc2)no1 | inactive: > 100 µM
Nc1ccc(-c2ccc(Nc3cc(S(=O)(=O)O)c(N)c4c3C(=O)c3ccccc3C4=O)cc2)c(S(=O)(=O)O)c1 | inactive: > 100 µM
CCN1CC2=C(NC(=S)NC2c2cc(OC)c(OC)c(OC)c2)/C(=C/c2cc(OC)c(OC)c(OC)c2)C1 (stereo unspecified) | inactive: 27.2 µM
O=c1oc2c([N+](=O)[O-])cc([N+](=O)[O-])cc2c2ccccc12 | inactive: > 100 µM
N#Cc1nc(C2CCC2)oc1N | inactive: > 100 µM
CCOC(=O)/C=C(\C)c1ccc(Cl)cc1 | inactive: > 100 µM
COc1ccccc1C1C(C(=O)O)=C(CO)Oc2cc3c(cc21)OCO3 (stereo unspecified) | inactive: > 100 µM
CC(C)CC/N=c1/cc2n(-c3ccc(Cl)cc3)c3ccccc3nc-2cc1Nc1ccc(Cl)cc1 | inactive: 13.8 µM
COc1ccc2[nH]c3c4c(ccc3c2c1)C(=O)C=CC4=O | inactive: 29.6 µM
CC(=NNC(=S)Nc1ccc(C)cc1)c1cccc(C(C)=NNC(=S)Nc2ccc(C)cc2)n1 | inactive: 28.5 µM
Cc1cn(C2C=CC(COP(=O)(OCC3=CC(=O)c4ccccc4C3=O)N(C)CCCCCl)O2)c(=O)[nH]c1=O (stereo unspecified) | inactive: 7.52 µM
COc1ccc2c(c1)[C@@H]1c3cc(OC)c(OC)cc3CCN1CCC2 | inactive: > 100 µM
Nc1cc2nc(O)c(O)nc2cc1N | inactive: > 100 µM
CO[C@H]1C[C@H](O[C@H]2CC[C@@]3(C)[C@H](CC[C@@H]4[C@@H]3CC[C@]3(C)[C@@H](C5=CC(=O)OC5)CC[C@]43O)C2)O[C@H](C)[C@H]1O | active: < 0.01 µM
Fc1cccc(F)c1C1SCC2=Nc3ccccc3CN21 (stereo unspecified) | inactive: 48.2 µM
Nc1ccc(S(=O)(=O)Nc2cnc3ccccc3n2)cc1 [SULFAQUINOXALINE] | inactive: > 100 µM
O=C(NC(C(F)(F)F)(C(F)(F)F)P(=O)(c1ccccc1)c1ccccc1)C(C(F)(F)F)C(F)(F)F | inactive: > 100 µM
C=C1C2CC(OC(C)=O)C3(C)C(c4ccoc4)OC(=O)[C@@H](O)[C@]13OC1C[C@H](OC(C)=O)C(C)(C)[C@H](C(O)C(=O)OC)[C@]12C (stereo partly specified) | inactive: > 100 µM
O=C(CCC(=O)Nc1ccc(Cl)cc1)CC(=O)c1ccc(F)cc1 | inactive: > 100 µM
N#C/C(=C\c1ccc(C(O)P(=O)(O)O)cc1)C(N)=O (stereo unspecified) | inactive: > 100 µM
CC1(C)OC(=O)C(C)(C)C(=O)O1 | inactive: > 100 µM
O=[N+]([O-])c1ccc(Cl)c2c([N+](=O)[O-])cccc12 | inactive: 4.32 µM
Cc1nc2c(nc1Cl)nc(Oc1ccc(Cl)cc1)c1ccccc12 | inactive: > 100 µM

Compound | GI50
C1CSCCSCSCCS1 | inactive: > 100 µM
Cc1cc(C)c2c(c1)CC1(Cc3c(C)cc(C)cc3C1=O)C2=O (stereo unspecified) | inactive: > 100 µM
CC1CN1c1c(C(=O)/C=C/c2ccc(Cl)cc2)c(-c2ccccc2)nn(C)c1=O (stereo unspecified) | inactive: 5.27 µM
Cc1ccc(-c2n[nH]c(=O)n2/N=C\c2ccccc2)cc1 | inactive: 70.6 µM
CC(C)NC(=O)OCc1c(COC(=O)NC(C)C)c(-c2ccc[n+](COC(=O)Cc3ccccc3)c2)n2c1CCC2 | inactive: 54.6 µM
CCc1n[nH]c(=O)n1N | inactive: > 100 µM
NS(=O)(=O)c1nnc(NC(=O)c2ccccc2)s1 | inactive: > 100 µM
CCCCC(C(=O)C(=O)NC1C2CC3CC(C2)CC1C3)C(=O)C(C)C (stereo unspecified) | inactive: > 100 µM
COC(=O)/C(=N\N)C(C(=O)C(=O)Nc1cccc([N+](=O)[O-])c1)c1nc2ccc(C(=O)c3ccccc3)cc2nc1O (stereo unspecified) | inactive: > 100 µM
COc1ccc(CC2NCCc3c2[nH]c2ccccc32)cc1 (stereo unspecified) | inactive: 57.9 µM
CC(C)OC(=O)C1Cc2c([nH]c3ccccc23)C(c2ccccc2)N1 (stereo unspecified) | inactive: > 100 µM
O=C(/C=C1/Nc2ccc([N+](=O)[O-])cc2N/C1=C/C(=O)c1ccccc1)c1ccccc1 | inactive: 53.7 µM
O=C1Nc2ccccc2/C1=N/Nc1ccc([N+](=O)[O-])cc1[N+](=O)[O-] | inactive: 24.6 µM
O=C(O)c1c(Cl)c(Cl)c(Cl)c(Cl)c1C(=O)Nc1ccc2cn[nH]c2c1 | inactive: > 100 µM
O=[N+]([O-])c1ccc(Sc2c3ccccc3nc3ccccc23)cn1 | inactive: 29.5 µM
CCN(CC)/[N+]([O-])=N/O | inactive: > 100 µM
O=C(CBr)c1ccc2cc(Br)c3ccccc3c2c1 | inactive: 23.3 µM
C1=Nc2sc3c(c2C2=NCCN12)CCCC3 | inactive: 16.7 µM
NC(=O)N/N=C(/Cc1nc2ccc(C(=O)c3ccccc3)cc2nc1O)C(=O)Nc1ccc(C(F)(F)F)cc1[N+](=O)[O-] | inactive: > 100 µM
NC(Cc1cccnn1)C(=O)O (stereo unspecified) | inactive: > 100 µM
CCCCOC(=O)N[C@H]1CCc2cc(OC)c(OC)c(OC)c2-c2ccc(SC)c(=O)cc21 | active: < 0.01 µM
CCOC(=O)C1(C(=O)OCC)[C@@H](c2ccccc2)C2=NO[C@@H]3CCC[C@H]1[C@H]23 | inactive: > 100 µM
CCOC(=O)c1csc(NC(=O)CCN2CCOCC2)n1 | inactive: > 100 µM

Compound | GI50
CCOC(=O)c1c(NC(=O)c2ccc(Br)cc2)sc2c1CCCC2 | inactive: > 100 µM
O/N=C/c1ccc(O)c(O)c1 | inactive: > 100 µM
CCCCCCCCCCCCCC/C(C(=O)O)=C(\C)C(=O)O | inactive: > 100 µM
COc1cc2c(oc(=O)c3c4oc([Si](C)(C)C)cc4cc(OC)c23)c2cccc(OCc3ccccc3)c12 | inactive: > 38.1 µM
CN(C)CCNC(=O)c1cc2ccccc2c2nc3ccccc3nc12 | active: 0.612 µM
CCC1NCC(=O)c2c1[nH]c1ccccc21 (stereo unspecified) | inactive: > 100 µM
CCOC(=O)c1csc(NC(=O)CCN2CCCC2)n1 | inactive: > 100 µM
COc1ccc2nc(NC(=O)C(=O)NNC(=O)c3ccncc3)sc2c1 | inactive: > 100 µM
CCOC(OCC)C(CC)[Se]c1ccccc1 (stereo unspecified) | inactive: > 100 µM
Clc1cc2nnn(C3CCCCO3)c2cc1Cl (stereo unspecified) | inactive: 82.6 µM
CC(=O)/C=c1\[nH]/c(=C\C=C\c2ccccc2)c(=O)n1/C=C1\C(=O)Oc2ccccc2C1=O | inactive: > 100 µM
COc1ccc(/C=C/C(=O)c2cc(C(=O)O)c(OC)cc2OC)cc1OC | inactive: > 100 µM
[N-]=[N+]=NC1C(Br)C(=O)NC(=O)N1[C@H]1C[C@H](O)[C@@H](CO)O1 (stereo partly specified) | inactive: > 100 µM
CC1Nc2ccccc2NC1C=C(C#N)C#N (stereo unspecified) | inactive: 16.7 µM
CCOC(=O)c1c(NC(=O)c2ccc(OC)cc2)sc2c1CCCC2 | inactive: > 100 µM
Cc1ccc(/C=N/NS(=O)(=O)c2ccccc2)cc1 | inactive: > 100 µM
COc1ccc(-c2nc(N)n(C)c2SSc2c(-c3ccc(OC)cc3)nc(N)n2C)cc1 | inactive: 15.7 µM
Fc1nc(Sc2ncnc3nc[nH]c23)nc(-c2c3ccccc3c3sc4ccccc4n23)n1 | inactive: > 100 µM
CC(C)N1CSC(=S)N(Cc2ccccc2)C1 | inactive: > 10 µM
Cc1ccc(NCCO)cc1 | inactive: > 100 µM
COc1ccc2oc(C(=O)O)c3c2c1CCC3 | inactive: > 100 µM
CC[C@H](C)[C@H]1NC(=O)[C@@H](NC(=O)[C@@H](CC(C)C)N(C)C(=O)[C@@H]2CCCN2C(=O)C(C)=O)[C@@H](C)OC(=O)[C@H](Cc2ccc(OC)cc2)N(C)C(=O)[C@@H]2CCCN2C(=O)[C@H](CC(C)C)NC(=O)[C@H](C(C)C)OC(=O)C[C@@H]1O (Pyruvoyl-P[dNMeL]T[X35][Hiv]LP[NMeY](Me); ester 3-C) | active: 0.00467 µM
